In patent publication US5760092A, “Allocolchinones and uses thereof” (Brandeis University, priority 1996, dated 1998):
Several values for one entry are separate records, joined by “and”; a condition that tells them apart may be missing. Equal values may be shown once. Read-outs that look alike come from different tables or passages of the source.

What was measured:
[1] = system: BT-549 breast cancer cells
ACHN renal cancer cells [2] = assay: cells; settings: Homo sapiens, read-out: Percent Growth, log10 conc -8.0
MALME-3M melanoma cells = assay: cells; settings: Homo sapiens
RPMI-8226 leukemia cells = assay: cells; settings: Homo sapiens
[3] = system: SW-620 colon cancer cells; assay: cells; settings: Homo sapiens
[4] = system: HCT-116 colon cancer cells
ACHN renal cancer cells [5] = settings: log10 conc -8.0; 0.01 µM
[6] = system: IGR-OV1 ovarian cancer cells
SK-MEL-5 melanoma cells [7] = system: SK-MEL-5 melanoma cells
[8] = system: NCI-H23 non-small cell lung cancer cells; assay: cells; settings: Homo sapiens, NCI-H23, read-out: Percent Growth, log10 conc -6.0
[9] = system: MDA-MB-231/ATCC breast cancer cells; assay: cells; settings: Homo sapiens
[10] = system: MDA-MB-435 breast cancer cells
[11] = system: BT-549 breast cancer cells; assay: cells; settings: Homo sapiens
[12] = system: OVCAR-5 ovarian cancer cells; assay: cells; settings: Homo sapiens
[13] = system: HCT-116 colon cancer cells; assay: cells; settings: Homo sapiens
UACC-62 melanoma cells = assay: cells; settings: Homo sapiens
786-0 renal cancer cells = assay: cells; settings: Homo sapiens
SK-MEL-5 melanoma cells [14] = assay: cells; settings: Homo sapiens, SK-MEL-5, read-out: Percent Growth, log10 conc -5.0
SN12C renal cancer cells = assay: cells; settings: Homo sapiens
[15] = system: PC-3 prostate cancer cells
LOX IMVI melanoma cells = assay: cells; settings: Homo sapiens, read-out: Percent Growth, log10 conc -8.0
[16] = system: NCI-H522 non-small cell lung cancer cells
[17] = read-out: Percent Growth, log10 conc -5.0
[18] = read-out: Percent Growth, log10 conc -6.0
[19] = read-out: Percent Growth, log10 conc -7.0

## CCCC(=O)NC1CCc2cc(OC)c(OC)c(OC)c2-c2ccc(C(C)=O)cc21 (stereo not drawn)
SK-MEL-28 melanoma cells; log10 conc -4.0, 100 µM
  Percent Growth: 29% and 58%
SK-MEL-28 melanoma cells; log10 conc -5.0, 10 µM
  Percent Growth: 27% and 52%
SK-MEL-28 melanoma cells; log10 conc -6.0, 1 µM
  Percent Growth: 27% and 54%
[1]; log10 conc -5.0, 10 µM
  Percent Growth: 23%
[1]; log10 conc -6.0, 1 µM
  Percent Growth: 30%
[1]; log10 conc -8.0, 0.01 µM
  Percent Growth: 26%
ACHN renal cancer cells [2]
  activity at 0.01 µM: 36%
UO-31 renal cancer cells; log10 conc -4.0, 100 µM
  Percent Growth: -4% and 1%
UO-31 renal cancer cells; log10 conc -6.0, 1 µM
  Percent Growth: 32%
UO-31 renal cancer cells; log10 conc -7.0, 0.1 µM
  Percent Growth: 33%
UO-31 renal cancer cells; log10 conc -8.0, 0.01 µM
  Percent Growth: 42%
MALME-3M melanoma cells; [17]
  activity at 10 µM: 24%
MALME-3M melanoma cells; [18]
  activity at 1 µM: 16%
MALME-3M melanoma cells; [19]
  activity at 0.1 µM: 15%
RPMI-8226 leukemia cells; RPMI-8226, read-out: Percent Growth, log10 conc -5.0
  activity at 10 µM: 7%
RPMI-8226 leukemia cells; RPMI-8226, read-out: Percent Growth, log10 conc -6.0
  activity at 1 µM: 8%
RPMI-8226 leukemia cells; RPMI-8226, read-out: Percent Growth, log10 conc -7.0
  activity at 0.1 µM: 11%
RPMI-8226 leukemia cells; RPMI-8226, read-out: Percent Growth, log10 conc -8.0
  activity at 0.01 µM: 14%
[3]; SW-620, read-out: Percent Growth, log10 conc -5.0
  activity at 10 µM: 28%
[3]; SW-620, read-out: Percent Growth, log10 conc -6.0
  activity at 1 µM: 23%
[3]; SW-620, read-out: Percent Growth, log10 conc -7.0
  activity at 0.1 µM: 24%
[3]; SW-620, read-out: Percent Growth, log10 conc -8.0
  activity at 0.01 µM: 21%
[4]; log10 conc -5.0, 10 µM
  Percent Growth: 3%
[4]; log10 conc -6.0, 1 µM
  Percent Growth: 5%
[4]; log10 conc -8.0, 0.01 µM
  Percent Growth: 8%
ACHN renal cancer cells [5]
  Percent Growth: 28%
[6]; log10 conc -5.0, 10 µM
  Percent Growth: 20%
[6]; log10 conc -6.0, 1 µM
  Percent Growth: 18%
[6]; log10 conc -7.0, 0.1 µM
  Percent Growth: 20%
SK-MEL-5 melanoma cells [7]; log10 conc -4.0, 100 µM
  Percent Growth: -47%
SK-MEL-5 melanoma cells [7]; log10 conc -5.0, 10 µM
  Percent Growth: 2%
SK-MEL-5 melanoma cells [7]; log10 conc -6.0, 1 µM
  Percent Growth: 4%
SK-MEL-5 melanoma cells [7]; log10 conc -7.0, 0.1 µM
  Percent Growth: -5% and 3%
SK-MEL-5 melanoma cells [7]; log10 conc -8.0
  Percent Growth: 2%
[8]
  activity at 1 µM: 8%
[9]; MDA-MB-231, read-out: Percent Growth, log10 conc -4.0
  activity at 100 µM: 14%
[9]; MDA-MB-231, read-out: Percent Growth, log10 conc -5.0
  activity at 10 µM: 3%
UACC-257 melanoma cells; log10 conc -5.0, 10 µM
  Percent Growth: 32%
UACC-257 melanoma cells; log10 conc -6.0, 1 µM
  Percent Growth: 39%
UACC-257 melanoma cells; log10 conc -7.0, 0.1 µM
  Percent Growth: 32%
[10]; log10 conc -5.0, 10 µM
  Percent Growth: -44% and -45%
[10]; log10 conc -6.0, 1 µM
  Percent Growth: -42% and -46%
[10]; log10 conc -7.0, 0.1 µM
  Percent Growth: -45% and -43%
[10]; log10 conc -8.0
  Percent Growth: -54%
[10]; log10 conc -8.0, 0.01 µM
  Percent Growth: -44%
[11]; BT-549, read-out: Percent Growth, log10 conc -5.0
  activity at 10 µM: 13%
[11]; BT-549, read-out: Percent Growth, log10 conc -6.0
  activity at 1 µM: 20%
[11]; BT-549, read-out: Percent Growth, log10 conc -8.0
  activity at 0.01 µM: 34%
[12]; OVCAR-5, read-out: Percent Growth, log10 conc -4.0
  activity at 100 µM: 12%
[12]; OVCAR-5, read-out: Percent Growth, log10 conc -5.0
  activity at 10 µM: 20%
[12]; OVCAR-5, read-out: Percent Growth, log10 conc -6.0
  activity at 1 µM: 24%
[12]; OVCAR-5, read-out: Percent Growth, log10 conc -7.0
  activity at 0.1 µM: 24%
[12]; OVCAR-5, read-out: Percent Growth, log10 conc -8.0
  activity at 0.01 µM: 17%
[13]; HCT-116, read-out: Percent Growth, log10 conc -5.0
  activity at 10 µM: 6%
[13]; HCT-116, read-out: Percent Growth, log10 conc -6.0
  activity at 1 µM: 6%
[13]; HCT-116, read-out: Percent Growth, log10 conc -7.0
  activity at 0.1 µM: 7%
[13]; HCT-116, read-out: Percent Growth, log10 conc -8.0
  activity at 0.01 µM: 12%
UACC-62 melanoma cells; UACC-62, read-out: Percent Growth, log10 conc -4.0
  activity at 100 µM: 26%
UACC-62 melanoma cells; UACC-62, read-out: Percent Growth, log10 conc -5.0
  activity at 10 µM: 36%
UACC-62 melanoma cells; UACC-62, read-out: Percent Growth, log10 conc -6.0
  activity at 1 µM: 37%
UACC-62 melanoma cells; UACC-62, read-out: Percent Growth, log10 conc -7.0
  activity at 0.1 µM: 31%
UACC-62 melanoma cells; UACC-62, read-out: Percent Growth, log10 conc -8.0
  activity at 0.01 µM: 19%
786-0 renal cancer cells; 786-0, read-out: Percent Growth, log10 conc -5.0
  activity at 10 µM: 14%
786-0 renal cancer cells; 786-0, read-out: Percent Growth, log10 conc -6.0
  activity at 1 µM: 15%
786-0 renal cancer cells; 786-0, read-out: Percent Growth, log10 conc -7.0
  activity at 0.1 µM: 21%
786-0 renal cancer cells; 786-0, read-out: Percent Growth, log10 conc -8.0
  activity at 0.01 µM: 22%
SK-MEL-5 melanoma cells [14]
  activity at 10 µM: 1%
SN12C renal cancer cells; read-out: Percent Growth, log10 conc -4.0
  activity at 100 µM: 12%
SN12C renal cancer cells; [17]
  activity at 10 µM: 13%
SN12C renal cancer cells; [18]
  activity at 1 µM: 6%
SN12C renal cancer cells; [19]
  activity at 0.1 µM: 7%
SN12C renal cancer cells; read-out: Percent Growth, log10 conc -8.0
  activity at 0.01 µM: 23%
[15]; log10 conc -6.0, 1 µM
  Percent Growth: 11%
[15]; log10 conc -7.0, 0.1 µM
  Percent Growth: 12%
[15]; log10 conc -8.0, 0.01 µM
  Percent Growth: 9%
SR leukemia cells; log10 conc -5.0, 10 µM
  Percent Growth: -9% and 0%
SR leukemia cells; log10 conc -6.0, 1 µM
  Percent Growth: -11%
SR leukemia cells; log10 conc -7.0, 0.1 µM
  Percent Growth: 3%
SR leukemia cells; log10 conc -8.0, 0.01 µM
  Percent Growth: -1% and 0%
LOX IMVI melanoma cells
  activity at 0.01 µM: 31%
[16]; log10 conc -6.0, 1 µM
  Percent Growth: -1%
[16]; log10 conc -7.0, 0.1 µM
  Percent Growth: -51% and -47%
[16]; log10 conc -8.0
  Percent Growth: -46%
[16]; log10 conc -8.0, 0.01 µM
  Percent Growth: -45%
